From PubChem BioAssay AID894 (National Center for Advancing Translational Sciences (NCATS), 2007)
Values joined by “and” are separate entries in the source; they are usually repeats but may differ in a detail not shown here. Equal values may be shown once. The whole screen tested about 150,000 compounds, of which about 6,500 (4.3%) were called active. About 12% were inconclusive and are not listed. The call rests on the fitted dose curve; in most records, active means well fitted inhibition curve with a large enough effect (not every such curve was filed as active); inconclusive means small, poorly fitted or top-dose-only effect, or another doubt; inactive means no such curve, though single readings can be large or run the other way. The entries are a selection whose mix differs from that of the whole data set. Some structures have more than one record in an assay (separate samples or runs), and their calls can disagree.

molecular target: 15-hydroxyprostaglandin dehydrogenase [NAD(+)] (Homo sapiens) (UniProt P15428); assay: qHTS Assay for Inhibitors of HPGD (15-Hydroxyprostaglandin Dehydrogenase); conditions: purified HPGD, NADH fluorescence kinetic, PGE2 substrate; activity change, negative = inhibition: stronger effect = lower value
Excerpt: Human 15-Hydroxyprostaglandin dehydrogenase (HPGD) catalyzes the inactivation of prostaglandin E2, and plays a major role in cancer biology by antagonizing the oncogenic potential of cyclooxygenase type 2 (COX2). Assays are available, based on absorbance/fluorescence increase of NADH with the substrate 15-OH prostaglandin E2. References 1. Myung SJ, Rerko RM, Yan M, Platzer P, Guda K, Dotson A, Lawrence E, Dannenberg AJ, Lovgren AK, Luo G, Pretlow TP, Newman RA, Willis J, Dawson D, Markowitz SD. 15-Hydroxyprostaglandin dehydrogenase is an in vivo suppressor of colon tumorigenesis. […] 2. Yan M, Rerko RM, Platzer P, Dawson D, Willis J, Tong M, Lawrence E, Lutterbaugh J, Lu S, Willson JK, Luo G, Hensold J, Tai HH, Wilson K, Markowitz SD. 15-Hydroxyprostaglandin dehydrogenase, a COX-2 oncogene antagonist, is a TGF-beta-induced suppressor of human gastrointestinal cancers. Proc Natl Acad Sci U S A. 2004 Dec 14;101(50):17468-73. 3. Yang L, Amann JM, Kikuchi T, Porta R, Guix M, Gonzalez A, Park KH, Billheimer D, Arteaga CL, Tai HH, Dubois R, Carbone DP, Johnson DH. Inhibition of Epidermal Growth Factor Receptor Signaling Elevates 15-Hydroxyprostaglandin Dehydrogenase in Non-Small-Cell Lung Cancer. Cancer Res. 2007 Jun 15;67(12):5587-5593. Inhibition of HPGD activity was screened by utilizing prostaglandin as an electron donor and NAD+ as an electron acceptor/cofactor. An increase in the fluorescence intensity due to conversion of NAD+ to NADH was used to measure the enzyme activity. NIH Chemical Genomics Center [NCGC] Structural Genomics Consortium [SGC]
Buffer: 50 mM Tris-HCl, 0.01% Tween 20, pH 8. Enzyme Buffer: 50 mM Tris-HCl, 0.5 mM NAD+ and 0.01% Tween 20, pH 8. Reagents/Controls: Buffer in columns 3 and 4 as negative control (no enzyme). Substrate/cofactor solution: 1 mM NAD+ and 30 uM prostaglandin (Sigma, prostaglandin E2, # P5640) final concentrations dispensed throughout the plate. Enzyme: 20 nM HPGD final concentration in columns 1, 2, 5-48. Column 1 and 2 is neutral (100% activity). A titration of control inhibitor GW5074 (G6416 Sigma-Aldrich, St. Louis, MO) top concentration 10 mM in DMSO, then 1:2 dilution for a total of 16 concentrations in duplicate) was pin-transferred into column 2. Assay Steps: Three uL of enzyme were dispensed to 1536-well Greiner black solid bottom plates. Compounds and control inhibitor (23 nL) were transferred via Kalypsys PinTool. The plates were incubated for 15 min at room temperature, and then 1 uL of substrate/cofactor solution was added to start the reaction. The plates were immediately transferred to and read 5 times every 30 seconds on ViewLux High-throughput CCD imager (Perkin-Elmer) using 360 nm excitation and 450 nm emission fluorescence protocol. The fluorescence intensity difference between the last and the first time points was used to compute reaction progress.
On the % scale 0 is the no-effect control and ±100 the full control effect; potency means the concentration at half of the fitted maximal effect.

UniProt P15428, sequence (P15428 whole entry, looked up): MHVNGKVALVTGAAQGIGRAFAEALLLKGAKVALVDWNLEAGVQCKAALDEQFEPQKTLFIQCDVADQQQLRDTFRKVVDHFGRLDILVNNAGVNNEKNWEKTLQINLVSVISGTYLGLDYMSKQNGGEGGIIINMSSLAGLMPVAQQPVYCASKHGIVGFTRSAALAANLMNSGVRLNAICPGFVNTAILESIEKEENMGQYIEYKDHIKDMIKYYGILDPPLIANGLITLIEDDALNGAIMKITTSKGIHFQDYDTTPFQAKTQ

Q: `O=C1C(=O)c2ccccc2C(O)=C1C1CCC(c2ccc(Cl)cc2)CC1` (stereo unspecified) was tested. Which activity change, negative = inhibition did it give?
A: inactive: -16.3%

Q: How did the activity change, negative = inhibition turn out when `O=S(=O)(c1ccccc1)N(CC(O)Cn1c2ccccc2c2ccccc21)c1ccccc1` (stereo unspecified) was run?
A: inactive: 32.5%

Q: With `N[C@H](C(=O)N[C@@H]1C(=O)N2C(C(=O)O)=C(Cl)CS[C@@H]12)c1ccccc1` as the molecule, how does the activity change, negative = inhibition read?
A: inactive: 4.2% and inactive: -10.6%

Q: How did the Potency turn out when `O=C(NCCCNc1ccc([N+](=O)[O-])cc1)C(F)(F)F` was run?
A: active: 20 µM

Q: How did the Potency turn out when `S=c1[nH]nc(-c2cccnc2)n1/N=C/C=C/c1ccccc1` was run?
A: active: 12.6 µM

Q: With `Cc1ccccc1OCc1n[nH]c(=S)n1Cc1ccccc1` as the molecule, how does the Potency read?
A: active: 14.1 µM

Q: How did the Potency turn out when `COc1ccccc1OCCNC(=O)c1cccs1` was run?
A: active: 15.8 µM

Q: For `Cc1ccc(S(=O)(=O)N2CCC(C(=O)OC(C)C(=O)NCc3ccc4c(c3)OCO4)CC2)cc1` (stereo unspecified), which Potency is on record?
A: active: 17.8 µM

Q: With `COc1ccc(S(=O)(=O)N2CCC(C(=O)N3CCCCC3)CC2)cc1Cl` as the molecule, how does the Potency read?
A: active: 15.8 µM

Q: `Cc1cn(-c2ccc(Br)cc2)[nH]c1=O` was tested. Which Potency did it give?
A: active: 25.1 µM

Q: `CC(C)CCNC(=O)NC(=O)COC(=O)c1cc(S(=O)(=O)N2CCOCC2)ccc1N1CCCCC1` was tested. Which activity change, negative = inhibition did it give?
A: inactive: 73.7%

Q: Which activity change, negative = inhibition does the source give for `CCCN[C@@H](C)C(=O)Nc1ccccc1C` here?
A: inactive: -9.25%

Q: With `N#C/C(=C\c1ccc(O)c(O)c1)C(=O)NCc1ccccc1` as the molecule, how does the activity change, negative = inhibition read?
A: inactive: -28.8%

Q: `O=C(CSc1cccs1)NCCc1ccccc1` was tested. Which Potency did it give?
A: active: 14.1 µM

Q: Which activity change, negative = inhibition does the source give for `COC(=O)[C@H](Cc1ccccc1)NC(=O)O[C@@H]1C(=O)c2cc(OC)ccc2O[C@H]1c1ccc(OC)c(Br)c1` here?
A: inactive: -16.6%

Q: `CCC(C)n1c(=N)c(C#N)cc2c(=O)n3ccccc3nc21` (stereo unspecified) was tested. Which activity change, negative = inhibition did it give?
A: inactive: 84.8%

Q: With `Nc1nc2ncc(CNc3ccc(C(=O)NC(CCC(=O)O)C(=O)O)cc3)nc2c(=O)[nH]1` (stereo unspecified) as the molecule, how does the activity change, negative = inhibition read?
A: inactive: -5.7% and inactive: -23.9%

Q: With `CC1=C(C(=O)O)N2C(=O)[C@@H](NC(=O)C(N)c3ccccc3)[C@H]2SC1` (stereo partly specified) as the molecule, how does the activity change, negative = inhibition read?
A: inactive: -24.2%

Q: With `CN(C)c1ccc(O)c2c1C[C@@H]1C[C@H]3C(N(C)C)C(=O)C(C(N)=O)=C(O)[C@@]3(O)C(=O)C1=C2O` (stereo partly specified) as the molecule, how does the Potency read?
A: active: 28.2 µM

Q: Which Potency does the source give for `COc1cc(/C=C/C(=O)c2cccs2)cc(OC)c1OC` here?
A: active: 28.2 µM

Q: How did the activity change, negative = inhibition turn out when `Cc1nnc(SCc2cc(=O)oc3cc(O)ccc23)n1Cc1ccccc1` was run?
A: inactive: 45.8%

Q: Which activity change, negative = inhibition does the source give for `CC1COc2c(N3CCN(C)CC3)c(F)cc3c(=O)c(C(=O)O)cn1c23` (stereo unspecified) here?
A: inactive: -16.7%

Q: How did the activity change, negative = inhibition turn out when `Cc1ccc(N2C(=O)/C(=C/c3ccco3)SC2=S)cc1` was run?
A: inactive: -9.87%

Q: How did the activity change, negative = inhibition turn out when `N#Cc1c(NC(=O)CCCN2C(=O)c3ccccc3C2=O)oc(-c2ccccc2)c1-c1ccccc1` was run?
A: inactive: 64.5%

Q: With `Cn1c(=O)cc(OCC(=O)N2CCN(c3cccc(C(F)(F)F)c3)CC2)c2ccccc21` as the molecule, how does the activity change, negative = inhibition read?
A: inactive: 44.9%

Q: Which Potency does the source give for `Cc1onc(-c2ccccc2Cl)c1C(=O)OCN1C(=O)c2ccccc2C1=O` here?
A: active: 11.2 µM

Q: `COc1ccccc1CNC(=O)c1cccc(-c2ccc(C)c3ccccc23)n1` was tested. Which activity change, negative = inhibition did it give?
A: inactive: -26.4%

Q: Which Potency does the source give for `Cc1ccc(/C=N/c2sc3c(c2C#N)CCC3)o1` here?
A: active: 15.8 µM

Q: For `COC(=O)[C@@H]1[C@@H]2C[C@H]3c4[nH]c5cc(OC)ccc5c4CCN3C[C@@H]2C[C@H](OC(=O)c2cc(OC)c(OC)c(OC)c2)[C@H]1OC`, which activity change, negative = inhibition is on record?
A: inactive: -22%

Q: `O=[N+]([O-])c1cc2nc(O)c(O)nc2cc1[N+](=O)[O-]` was tested. Which activity change, negative = inhibition did it give?
A: inactive: -23.1%

Q: `CC1CCCN(C(=O)CCc2ccccc2)C1` (stereo unspecified) was tested. Which Potency did it give?
A: active: 4.47 µM

Q: For `CC(NC(=O)OC(C)(C)C)C(=O)Oc1ccc2ccc(=O)oc2c1` (stereo unspecified), which activity change, negative = inhibition is on record?
A: inactive: 99.2%

Q: Which Potency does the source give for `CCc1c(C)[nH]c(=S)c(C#N)c1C` here?
A: active: 35.5 µM

Q: For `COc1ccc(NC(=O)c2ccc(-c3ccc(-c4noc(C)n4)cc3C)cc2)cc1N1CCN(C)CC1`, which activity change, negative = inhibition is on record?
A: inactive: -16.2%

Q: For `CCCCC[C@H](O)/C=C/[C@H]1[C@H](O)CC(=O)[C@@H]1CCCCCCC(=O)O`, which activity change, negative = inhibition is on record?
A: inactive: -10.2%

Q: How did the activity change, negative = inhibition turn out when `CCc1oc2ccccc2c1C(=O)c1cc(Br)c(O)c(Br)c1` was run?
A: inactive: -27.8% and inactive: -17.8%

Q: For `O=C(N/N=C/c1ccc2c(c1)OCO2)c1cc(-c2ccccc2)nc2ccccc12`, which activity change, negative = inhibition is on record?
A: inactive: 242%

Q: For `CSc1ccc(-c2c(C#N)c(N)nc3c2CCCC3)cc1`, which activity change, negative = inhibition is on record?
A: inactive: 164%

Q: Which Potency does the source give for `COCc1c(C)cc(C)c(/C=N/O)c1C` here?
A: active: 14.1 µM

Q: With `O=C(O)c1cc2ccccc2c(Cc2c(O)c(C(=O)O)cc3ccccc23)c1O` as the molecule, how does the activity change, negative = inhibition read?
A: inactive: -2.19%

Q: For `COc1ccc(/C=C/C(=O)c2c(O)ccc3c(C)cc(=O)oc23)cc1`, which activity change, negative = inhibition is on record?
A: inactive: -14.2%

Q: With `CCCCNC(=O)c1ccc(CNc2c(N3CCC(C(=O)OCC)CC3)c(=O)c2=O)cc1` as the molecule, how does the Potency read?
A: active: 3.55 µM

Q: With `CC(C)NC[C@H](O)c1ccc(O)c(O)c1` as the molecule, how does the activity change, negative = inhibition read?
A: inactive: -2.34% [middle of 4 runs]

Q: How did the Potency turn out when `O=C(CC(c1ccccc1)c1cc(Br)ccc1O)NCc1ccco1` (stereo unspecified) was run?
A: active: 7.08 µM

Q: `COCCCNC(=O)C1CCN(S(=O)(=O)c2c(C)noc2/C=C\c2ccc(OC)cc2)CC1` was tested. Which activity change, negative = inhibition did it give?
A: inactive: 632%

Q: Which activity change, negative = inhibition does the source give for `Cc1ccc(-c2cccc(NC(=O)C3C4C=CC(C4)C3C(=O)O)c2)o1` (stereo unspecified) here?
A: inactive: -16.7%

Q: How did the activity change, negative = inhibition turn out when `CC1=C(C(=O)O)N2C(=O)[C@@H](NC(=O)[C@@H](N)c3ccccc3)[C@@H]2SC1` was run?
A: inactive: -29.4%

Q: With `COc1ccc2ccccc2c1C1CC(=O)N2CN(Cc3ccco3)CSC2=C1C#N` (stereo unspecified) as the molecule, how does the Potency read?
A: active: 7.94 µM

Q: `O=C(NCc1ccco1)c1sc2cc(Cl)ccc2c1Cl` was tested. Which Potency did it give?
A: active: 15.8 µM

Q: `Cc1cccc(NC(=O)c2ccccc2Br)n1` was tested. Which Potency did it give?
A: active: 25.1 µM

Q: With `CCc1ccc(C(=O)NN(C(=O)c2ccc(CC)cc2)C(C)(C)C)cc1` as the molecule, how does the Potency read?
A: active: 25.1 µM

Q: How did the activity change, negative = inhibition turn out when `Cc1ccc(N=CC2=C(O)CC(c3ccc(Cl)cc3)CC2=O)cc1` (stereo unspecified) was run?
A: inactive: 479%

Q: With `CCCCc1c(C)c2ccc(OCC(C)=O)cc2oc1=O` as the molecule, how does the activity change, negative = inhibition read?
A: inactive: 103%

Q: How did the activity change, negative = inhibition turn out when `COC(=O)C1=C(NC(=O)COc2ccc3ccccc3c2)CCS1` was run?
A: inactive: 106%

Q: For `Cc1ccn2cc(CNC(=O)c3ccc(Br)o3)nc2c1`, which Potency is on record?
A: active: 15.8 µM

Q: For `N#Cc1cc2[nH]c(=O)c(=O)[nH]c2cc1[N+](=O)[O-]`, which activity change, negative = inhibition is on record?
A: inactive: -27.7%
